Reference: the supplement of paper PMC12297408
Counter-ions that a name gives are not always drawn. Screen size: about 1,300 compounds; about 40 (3%) showed activity. This is one part of the list.

Test system: Plasmodium falciparum NF54/iGP1_RE9H ulg8 stage V gametocytes
Test: gametocyte viability (luciferase signal relative to DMSO control) (% of DMSO control); higher = less gametocytocidal activity, active = 50 or less
Details: exposure time: 72 h
In short: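 NF54/iGP1_RE9Hulg8 stage V gametocytes (day 12; ~2.5% gametocytemia, 3% hematocrit) were incubated with compounds at 10 µM or 1 µM final, in one well each, for 72 h at 37 °C in medium with 0.5% Albumax II. Luminescence after D-luciferin addition was read on an IVIS Lumina II. Viability refers to the mean of plate DMSO vehicle wells.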

Structure (SMILES) | gametocyte viability (concentration: 1 µM) | gametocyte viability (concentration: 10 µM)
CC(=O)O[C@]1(C(C)=O)CC[C@H]2[C@@H]3C=C(C)C4=CC(=O)CC[C@@H]4[C@H]3CC[C@@]21C [Nomegestrol acetate] | inactive: 81.7 | inactive: 75.6
CN1CCN(CCCN2c3ccccc3Sc3ccc(S(=O)(=O)N(C)C)cc32)CC1 [Thioproperazine dimesylate] | inactive: 81.7 | inactive: 52.8
C[C@@H](c1ncncc1F)[C@](O)(Cn1cncn1)c1ccc(F)cc1F [Voriconazole] | inactive: 81.9 | inactive: 82.8
O=C(O)Cc1ccccc1Nc1c(Cl)cccc1Cl [Diclofenac sodium] | inactive: 89.2 | inactive: 93.4
CC(=O)Oc1cc(C(F)(F)F)ccc1C(=O)O [Triflusal] | inactive: 82.3 | inactive: 87.1
CS(=O)(=O)c1ccc([C@@H](O)[C@@H](CO)NC(=O)C(Cl)Cl)cc1 [Thiamphenicol] | inactive: 88.8 | inactive: 85.6
CC(C)Cc1ccc([C@H](C)C(=O)O)cc1 [S-(+)-ibuprofen] | inactive: 86.6 | inactive: 89.2
C[C@]12C=CC(=O)C=C1CC[C@@H]1[C@@H]2[C@@H](O)C[C@@]2(C)[C@H]1CC[C@]2(O)C(=O)CO [Prednisolone] | inactive: 100 | inactive: 91.9
O=c1[nH]cc(F)c(=O)[nH]1 [5-fluorouracil] | inactive: 83.9 | inactive: 90.5
Nc1ccc(O)c(C(=O)O)c1 [Mesalamine] | inactive: 84.2 | inactive: 80.8
CCN(CC)CCOC(=O)C1(c2ccc([N+](=O)[O-])cc2)CCCC1 [Nitrocaramiphen hydrochloride] | inactive: 90 | inactive: 80.4
Clc1ccccc1CN1CCc2sccc2C1 [Ticlopidine hydrochloride] | inactive: 96 | inactive: 93.2
CN(C)CCCN1c2ccccc2CCc2ccc(Cl)cc21 [Clomipramine hydrochloride] | inactive: 89.3 | inactive: 77.5
CO[C@@]1(NC(=O)C2SC(=C(C(N)=O)C(=O)O)S2)C(=O)N2C(C(=O)O)=C(CSc3nnnn3C)CS[C@@H]21 (some centres not stated) [Cefotetan] | inactive: 95.5 | inactive: 95.6
Cc1cc(NC(=O)C2=C(O)c3ccccc3S(=O)(=O)N2C)no1 [Isoxicam] | inactive: 82.8 | inactive: 81.8
Cc1cc(C(C)(C)CC(C)(C)C)ccc1OCCOCC[N+](C)(C)Cc1ccccc1 [Methyl benzethonium chloride] | inactive: 88.6 | active: 6.6
